# Paper PMC4336329 (PLoS ONE, 2015)
# In all, about 310,000 compounds went through this assay and about 2,200 (0.71%) showed an effect of 50% or more. Effects have a minus sign here. This is one part of the list.
# Target: human ether-à-go-go-related gene (hERG) potassium channel (human, UniProt Q12809)
# Assay: primary screen, population patch clamp on CHO cells stably expressing hERG
# human ether-à-go-go-related gene (hERG) potassium channel, sequence (Q12809 whole entry, looked up): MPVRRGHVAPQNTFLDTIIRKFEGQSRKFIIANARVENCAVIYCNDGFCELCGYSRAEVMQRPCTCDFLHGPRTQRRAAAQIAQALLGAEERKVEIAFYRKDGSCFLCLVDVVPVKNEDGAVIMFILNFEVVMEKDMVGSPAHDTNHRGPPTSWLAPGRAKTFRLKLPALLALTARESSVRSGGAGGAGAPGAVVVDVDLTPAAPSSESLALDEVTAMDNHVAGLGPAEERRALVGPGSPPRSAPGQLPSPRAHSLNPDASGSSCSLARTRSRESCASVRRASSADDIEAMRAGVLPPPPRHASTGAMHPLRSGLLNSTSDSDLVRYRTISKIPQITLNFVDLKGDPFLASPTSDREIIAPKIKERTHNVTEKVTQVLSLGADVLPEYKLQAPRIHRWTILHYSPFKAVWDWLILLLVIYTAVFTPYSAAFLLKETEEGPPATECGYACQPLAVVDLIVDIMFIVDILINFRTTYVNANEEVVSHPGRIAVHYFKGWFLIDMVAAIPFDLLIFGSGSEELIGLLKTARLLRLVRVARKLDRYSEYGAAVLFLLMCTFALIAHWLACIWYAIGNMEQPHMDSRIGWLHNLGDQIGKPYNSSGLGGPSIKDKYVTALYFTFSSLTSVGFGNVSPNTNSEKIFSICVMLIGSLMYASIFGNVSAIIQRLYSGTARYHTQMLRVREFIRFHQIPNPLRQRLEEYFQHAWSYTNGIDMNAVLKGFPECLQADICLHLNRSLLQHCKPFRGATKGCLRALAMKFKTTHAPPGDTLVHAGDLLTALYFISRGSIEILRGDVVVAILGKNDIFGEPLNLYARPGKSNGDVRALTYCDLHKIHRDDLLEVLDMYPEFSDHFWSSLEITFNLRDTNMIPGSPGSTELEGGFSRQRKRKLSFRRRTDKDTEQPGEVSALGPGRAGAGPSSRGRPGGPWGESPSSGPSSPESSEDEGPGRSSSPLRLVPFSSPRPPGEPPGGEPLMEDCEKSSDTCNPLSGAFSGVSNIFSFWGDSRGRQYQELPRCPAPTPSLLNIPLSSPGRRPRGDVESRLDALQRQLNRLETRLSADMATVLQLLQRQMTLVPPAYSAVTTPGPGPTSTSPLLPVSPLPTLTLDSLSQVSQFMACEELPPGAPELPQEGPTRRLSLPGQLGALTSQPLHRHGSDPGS
row,SMILES,"hERG current change (%, negative = inhibition) at 1uM"
1,COc1cccc(CNC(=O)CN(C)S(=O)(=O)c2ccc(Br)s2)c1,1.55%
2,COCCn1c(=S)[nH]c2cc(C(=O)NC(C)C)ccc2c1=O,4.89%
3,O=C(NC1CCCCCCC1)c1c(Cl)cccc1Cl,11.2%
4,Cc1ccc(S(=O)(=O)CC(=O)c2ccccc2[N+](=O)[O-])cc1,17.5%
5,O=C(C1=NOC(CNc2ncc(C(F)(F)F)cc2Cl)C1)N1CCOCC1 (stereo not shown),3.61%
6,CC(=O)N1c2ccc(S(=O)(=O)N3CCC(C(=O)NCc4ccc(C)cc4)CC3)cc2CC1C (stereo not shown),-3.25%
7,COc1cc(O)c(C(CC(=O)N2CCCC2)c2ccc3c(c2)OCO3)c(OC)c1 (stereo not shown),9.32%
8,COc1cc(NC(=O)CSc2nnnn2-c2ccccc2)cc(OC)c1OC,4.52%
9,Cn1c(=O)oc2cc(S(=O)(=O)N3CCC(C(=O)NCc4cccs4)CC3)ccc21,8.76%
10,COCCn1c(SCC(=O)N2CCc3ccccc3C2)nc2cc(Cl)ccc2c1=O,5.44%
11,O=C(CN1C(=O)c2cccc3cccc1c23)N1CCN(Cc2ccc3c(c2)OCO3)CC1,8%
12,COc1ccccc1C(=O)Nc1c2c(nn1-c1cccc(C)c1C)CS(=O)(=O)C2,-14%
13,Cn1c(C=O)c(-c2ccc3cc[nH]c3c2)c2ccccc21,23.8%
14,O=C(ONC1=NCCCCC1)c1c(F)cccc1F,8.71%
15,COc1ccc(NS(=O)(=O)c2cccc(C(=O)NCc3cccnc3)c2)cc1,-16.5%
16,Cc1cc(C(F)F)n2ncc(C(=O)NCCc3ccccc3Cl)c2n1,7.77%
17,COc1ccccc1C(=O)NC(=O)COC(=O)c1nc(Cl)ccc1Cl,4.34%
18,CC1(C)CC(=O)c2sc(NC(=O)CN3CCOCC3)nc2C1,8.74%
19,Cc1cc(C(=O)COC(=O)c2n[nH]c3ccccc23)c(C)n1CC1CCCO1 (stereo not shown),-0.479%
20,Cc1nc2sc3c(=O)[nH]nnc3c2c(C)c1Br,15.6%
21,Cc1nn(C)c(Cl)c1CN1CCN(C2CCCC2)C(CCO)C1 (stereo not shown),2.28%
22,COc1ccc(-n2c(Cn3nnc4ccccc43)n[nH]c2=S)cc1,11.9%

row,SMILES,"hERG current change (%, negative = inhibition) at 1uM"
1,Cc1nnc(NCc2ccco2)c2ccccc12,0.744%
2,COC(=O)C1=C(C(=O)OC)[C@@H]2Nc3ccccc3[C@@]23C[C@@H](C(=O)OC)N(C(=O)CC(C)C)C3=N1,16.1%
3,O=c1cc(-c2ccccc2)nc(/C=C/c2ccccc2)[nH]1,8.79%
4,O=C(Nc1nnc(SCc2ccc(Cl)cc2)s1)c1cnccn1,-3.08%
5,COc1ccc(C(CNC(=O)c2ccc(NS(=O)(=O)c3cccc([N+](=O)[O-])c3)cc2)N2CCOCC2)cc1 (stereo not shown),15.9%
6,CC1CCCN(C(=O)C2CCN(S(=O)(=O)c3cccc4nsnc34)CC2)C1 (stereo not shown),3.62%
7,C/C(=N\Nc1nc(-c2cc(C)ccc2C)cs1)c1cc2c(ccc3ccccc32)oc1=O,18%
8,CN(CC(=O)Nc1ccccc1Br)C(=O)CCC1CCCC1,11.8%
9,O=C(/C=C/c1c(F)cccc1Cl)c1ccc(F)cc1,17.6%
10,CC(C)c1ccc(CNc2ccc3c(c2)ncn3C)cc1,21.4%
11,O=C(NCc1nnc(SCC(=O)N2CCCCCC2)o1)c1ccco1,12.2%
12,O=C(NC1CCCC1)C(c1ccco1)N(C(=O)c1ccco1)c1ccc(F)cc1 (stereo not shown),9.8%
13,CS(=O)(=O)NCCSc1cc(C(F)(F)F)nc2ccccc12,16.3%
14,CCC(C)(C)c1ccc(Oc2cccc(C(=O)O)c2)cc1,5.05%
15,Cc1ccc(C(=O)N2CCN(S(=O)(=O)c3sc(C(=O)O)c(C)c3C(=O)O)CC2)s1,17.5%
16,O=S(=O)(Cc1ccccc1)NCC1CCCN(Cc2ccc3nonc3c2)C1 (stereo not shown),3.65%
17,Cc1c(N=C2NC(=O)/C(=C/c3cccc([N+](=O)[O-])c3)S2)c(=O)n(-c2ccccc2)n1C,12.1%
18,O=C(Cn1c(CC(=O)N2CCCC2)nc2ccccc21)NCc1ccccc1,2.83%
19,CC(C)(C)OC(=O)N1CCCC1C(=O)N1CCc2ccccc21 (stereo not shown),15.6%
20,O=C(NCc1cccs1)C1CCCN1C(=O)NC1CCCCC1 (stereo not shown),17.6%
21,CC(=O)Nc1ccc(S(=O)(=O)Nc2nnc(C(C)(C)C)s2)cc1,12.3%
